According to the supplement of paper PMC4967469:
By IC50 is meant the dose at which the fit gives 50% viability; a limit (>, <) means that the fit lies beyond the doses tested. AUC is the area under the same curve over the 256-fold range up to the top dose, as a fraction; values near 1 show little effect. A top dose marked as inferred is not printed in the source and was worked back from the curve model. For some of these results: An entry number marks a drug with two screens in the source, which often give different values.

Experiments:
Assay in all cases: Viability of human cancer cell lines after 72 h of drug (GDSC screen)
[1] = compound: CC(C)=CC[C@@H](O)C1=CC(=O)c2c(O)ccc(O)c2C1=O [Shikonin]; details: top dose 16 µM; top dose inferred
Protocol: (§1)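 Human cancer cell lines in 384-well plates, medium with 10% serum, drug for 72 h over a 256-fold dose range (nine 2-fold or five 4-fold steps up to the top dose). Adherent lines were fixed and stained with the nucleic acid dye Syto60, suspension lines read with resazurin; signal relative to control wells, capped at 0 and 100%. One two-parameter sigmoid per drug and line, fitted in a mixed model over all curves with the slope shared within a line.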

[2] = compound: CCNc1cc(NC2CCC(O)CC2)nc(Nc2ccc3c(ccn3Cc3ccccc3)c2)n1 [CGP-082996 (CINK4)]; details: top dose 5.12 µM; top dose inferred
Protocol: as §1

[3] = compound: CNC(=O)c1ccc(Nc2cc(Nc3ccccc3S(=O)(=O)C(C)C)c3cc[nH]c3n2)nc1 [HG-5-113-01]; details: top dose 10 µM; top dose inferred
Protocol: as §1

[4] = compound: COc1cc(-c2nn([C@H]3CC[C@H](N4CCN(C(C)=O)CC4)CC3)c3ncnc(N)c23)ccc1NC(=O)c1cc2ccccc2n1C [A-770041]; details: top dose 5.12 µM; top dose inferred
Protocol: as §1

[5] = compound: COc1cc(N2CCN(C)CC2)ccc1Nc1ncc2c(n1)N(C)c1ccccc1C(=O)N2C [XMD8-85]; details: top dose 8 µM; top dose inferred
Protocol: as §1

[6] = compound: Cc1cc(N2CCOCC2)cc2[nH]c(-c3c(NC[C@@H](O)c4cccc(Cl)c4)cc[nH]c3=O)nc12 [BMS-536924]
Protocol: as §1

[7] = compound: Cc1cccc(-c2[nH]c(C(C)(C)C)nc2-c2ccc3nccnc3c2)n1 [SB-525334]; details: top dose 20 µM; top dose inferred
Protocol: as §1

[8] = compound: NC(=O)c1ccc(N(C(N)=O)c2c(F)cccc2F)nc1-c1ccc(F)cc1F [VX-702]; details: top dose 2 µM; top dose inferred
Protocol: as §1

[9] = compound: O=C(c1cc(Cc2n[nH]c(=O)c3ccccc23)ccc1F)N1CCN(C(=O)C2CC2)CC1 [Olaparib]
Protocol: as §1

[10] = compound: O=C1NC(=O)c2c1c(-c1ccccc1Cl)cc1[nH]c3ccc(O)cc3c21 [Wee1 inhibitor 681640]; details: top dose 2 µM; top dose inferred
Protocol: as §1

[11] = compound: Cc1ccc(-n2nc(C(C)(C)C)cc2NC(=O)Nc2ccc(OCCN3CCOCC3)c3ccccc23)cc1 [BIRB 0796]; details: top dose 10 µM; top dose inferred
Protocol: as §1

[12] = top dose 4 µM, screen: GDSC drug entry 1091, top dose inferred
[13] = top dose 5.12 µM, screen: GDSC drug entry 62
[14] = top dose 5 µM, screen: GDSC drug entry 1017, top dose inferred
[15] = top dose 10 µM, screen: GDSC drug entry 1495

Row | Cell Line | AUC [1] | IC50 [1] [µM] | AUC [2] | IC50 [2] [µM] | AUC [3] | IC50 [3] [µM] | AUC [4] | IC50 [4] [µM] | AUC [5] | IC50 [5] [µM] | AUC [6, 12] | IC50 [6, 12] [µM] | AUC [6, 13] | IC50 [6, 13] [µM] | AUC [7] | IC50 [7] [µM] | AUC [8] | IC50 [8] [µM] | AUC [9, 14] | IC50 [9, 14] [µM] | AUC [9, 15] | IC50 [9, 15] [µM] | AUC [10] | IC50 [10] [µM] | AUC [11] | IC50 [11] [µM]
1 | ALL-SIL (T-cell leukaemia, suspension) | 0.374 | 0.474 | 0.89 | 4.46 | 0.541 | 0.796 | 0.376 | 0.154 | 0.888 | 6.86 | 0.809 | 1.74 | 0.644 | 0.754 | 0.909 | > 20 | 0.989 | > 2 | 0.981 | > 5 | 0.963 | > 10 | 0.964 | > 2 | – | –
2 | C2BBe1 (large intestine, adherent) | 0.473 | 0.833 | 0.98 | > 5.12 | 0.857 | 9.99 | 0.627 | – | 0.985 | > 8 | 0.915 | > 4 | 0.819 | 3.44 | 0.839 | 16.3 | 0.972 | > 2 | 0.967 | > 5 | 0.984 | > 10 | – | – | 0.918 | > 10
3 | CL-11 (large intestine, adherent) | 0.768 | 6.74 | 0.987 | > 5.12 | 0.772 | 4.37 | 0.98 | > 5.12 | 0.983 | > 8 | 0.849 | 3.61 | 0.948 | > 5.12 | 0.982 | > 20 | 0.956 | > 2 | 0.976 | > 5 | 0.979 | > 10 | – | – | 0.985 | > 10
4 | ES3 (Ewing sarcoma, adherent) | 0.423 | 0.607 | 0.897 | > 5.12 | 0.616 | 1.32 | 0.966 | > 5.12 | 0.985 | > 8 | 0.751 | 1.38 | 0.902 | > 5.12 | 0.712 | 5.16 | – | – | – | – | 0.799 | 5.11 | 0.941 | > 2 | 0.976 | > 10
5 | K-562 (chronic myeloid leukaemia, suspension) | – | – | 0.874 | 4.72 | 0.694 | 2.15 | 0.555 | 0.45 | 0.929 | > 8 | – | – | – | – | – | – | – | – | – | – | – | – | 0.963 | > 2 | – | –
6 | LB996-RCC (kidney, adherent) | 0.758 | 6.4 | 0.98 | > 5.12 | 0.722 | 2.98 | 0.317 | 0.0897 | 0.831 | 6.21 | 0.826 | 2.97 | 0.634 | 0.8 | 0.979 | > 20 | – | – | – | – | 0.925 | > 10 | 0.98 | > 2 | 0.979 | > 10
7 | LB1047-RCC (kidney, adherent) | 0.353 | 0.372 | 0.857 | 5.01 | 0.618 | 1.38 | 0.349 | 0.115 | 0.931 | > 8 | 0.787 | 1.97 | 0.643 | 0.839 | 0.975 | > 20 | 0.983 | > 2 | 0.983 | > 5 | 0.971 | > 10 | – | – | 0.894 | > 10
8 | LNCaP-Clone-FGC (prostate, adherent) | 0.919 | > 16 | 0.968 | > 5.12 | 0.834 | 7.86 | 0.963 | > 5.12 | 0.977 | > 8 | 0.937 | > 4 | 0.965 | > 5.12 | 0.651 | 3.5 | – | – | – | – | 0.932 | > 10 | 0.952 | > 2 | 0.973 | > 10
9 | LOXIMVI (melanoma, semi-adherent) | 0.421 | 0.625 | 0.989 | > 5.12 | 0.747 | 2.9 | 0.911 | > 5.12 | 0.984 | > 8 | 0.879 | 3.33 | 0.897 | > 5.12 | 0.968 | > 20 | – | – | – | – | 0.779 | 3.64 | 0.902 | > 2 | 0.989 | > 10
10 | NB7 (neuroblastoma, adherent) | 0.477 | 0.862 | 0.958 | > 5.12 | 0.979 | > 10 | 0.957 | > 5.12 | 0.95 | > 8 | 0.985 | > 4 | 0.916 | > 5.12 | 0.784 | 8.91 | – | – | – | – | 0.971 | > 10 | 0.986 | > 2 | 0.983 | > 10
11 | NEC8 (testis, adherent) | 0.466 | 0.82 | 0.937 | > 5.12 | 0.818 | 4.59 | 0.777 | 1.74 | 0.955 | > 8 | 0.891 | 3.4 | 0.964 | > 5.12 | 0.984 | > 20 | 0.991 | > 2 | 0.937 | > 5 | – | – | – | – | 0.899 | 9.26
12 | NTERA-2 cl.D1 (testis, adherent) | 0.243 | 0.183 | 0.893 | > 5.12 | 0.602 | 1.19 | 0.884 | > 5.12 | 0.807 | 4.07 | 0.687 | 0.832 | 0.416 | 0.189 | 0.878 | 19.9 | 0.985 | > 2 | 0.713 | 1.24 | 0.362 | 0.26 | – | – | – | –
